From the supplement of paper PMC4967469
A lower IC50 marks a more sensitive line; a limit (>, <) means that the fit lies beyond the doses tested. AUC sums up the same curve from the lowest dose to the 256-fold higher top dose; the more sensitive the line, the further below 1. A top dose marked as inferred was calculated from the reported fits.

Experiments:
Test in all cases: Viability of human cancer cell lines after 72 h of drug (GDSC screen)
HG-6-64-1 = compound: CCN1CCN(Cc2ccc(NC(=O)c3ccc(C)c(/C=C/c4cnc5[nH]ccc5c4OC)c3)cc2C(F)(F)F)CC1 [HG-6-64-1]; details: top dose 5.12 µM; top dose inferred
Procedure: (§1)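 Human cancer cell lines in 384-well plates, medium with 10% serum, drug for 72 h over a 256-fold dose range (nine 2-fold or five 4-fold steps up to the top dose). Adherent lines were fixed and stained with the nucleic acid dye Syto60, suspension lines read with resazurin; signal relative to control wells, capped at 0 and 100%. One two-parameter sigmoid per drug and line, fitted in a mixed model over all curves with the slope shared within a line.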

KIN001-244 = compound: O=C(NC(COc1ccc2[nH]c(=O)[nH]c2c1)c1ccccc1)c1cccn(Cc2ccc(F)c(F)c2)c1=O [KIN001-244]; details: top dose 20 µM; top dose inferred
Procedure: as §1

I-BET-762 = compound: CCNC(=O)C[C@@H]1N=C(c2ccc(Cl)cc2)c2cc(OC)ccc2-n2c(C)nnc21 [I-BET-762]; details: top dose 20 µM; top dose inferred
Procedure: as §1

AV-951 = compound: COc1cc2nccc(Oc3ccc(NC(=O)Nc4cc(C)on4)c(Cl)c3)c2cc1OC [AV-951]; details: top dose 0.128 µM; top dose inferred
Procedure: as §1

PF-4708671 = compound: CCc1cncnc1N1CCN(Cc2nc3ccc(C(F)(F)F)cc3[nH]2)CC1 [PF-4708671]; details: top dose 10 µM; top dose inferred
Procedure: as §1

Cell Line	AUC (HG-6-64-1)	IC50 (HG-6-64-1)	AUC (KIN001-244)	IC50 (KIN001-244)	AUC (I-BET-762)	IC50 (I-BET-762)	AUC (AV-951)	IC50 (AV-951)	AUC (PF-4708671)	IC50 (PF-4708671)
201T (lung adenocarcinoma, adherent)	0.697	1.33 µM	0.909	> 20 µM	0.917	> 20 µM	0.96	> 0.128 µM	0.956	> 10 µM
647-V (bladder, adherent)	0.663	0.911 µM	0.913	> 20 µM	0.982	> 20 µM	0.981	> 0.128 µM	0.845	7.28 µM
A427 (non-small cell lung carcinoma, adherent)	0.489	0.298 µM	0.887	> 20 µM	0.982	> 20 µM	0.984	> 0.128 µM	0.786	4.36 µM
A2058 (melanoma, adherent)	0.704	1.12 µM	0.949	> 20 µM	0.99	> 20 µM	0.99	> 0.128 µM	0.989	> 10 µM
AGS (stomach, adherent)	0.673	0.915 µM	0.93	> 20 µM	0.973	> 20 µM	0.99	> 0.128 µM	0.983	> 10 µM
AU565 (breast, adherent)	0.89	> 5.12 µM	0.853	18.5 µM	0.948	> 20 µM	0.984	> 0.128 µM	0.927	> 10 µM
BICR31 (head and neck, adherent)	0.683	1.05 µM	0.955	> 20 µM	0.978	> 20 µM	0.987	> 0.128 µM		
C-4-I (cervix, adherent)	0.949	> 5.12 µM	0.902	> 20 µM	0.975	> 20 µM	0.986	> 0.128 µM	0.981	> 10 µM
CAPAN-1 (pancreas, adherent)	0.804	2.9 µM	0.938	> 20 µM	0.918	> 20 µM	0.98	> 0.128 µM	0.944	> 10 µM
CHP-134 (neuroblastoma, suspension)			0.915	> 20 µM	0.675	4.44 µM	0.979	> 0.128 µM		
COR-L303 (small cell lung carcinoma, suspension)			0.876	18.8 µM	0.749	6.31 µM	0.981	> 0.128 µM		
Caov-3 (ovary, adherent)	0.978	> 5.12 µM	0.918	> 20 µM	0.884	17.1 µM	0.99	> 0.128 µM		
DAN-G (pancreas, adherent)	0.992	> 5.12 µM	0.949	> 20 µM	0.988	> 20 µM	0.991	> 0.128 µM	0.973	> 10 µM
DMS-273 (small cell lung carcinoma, adherent)	0.7	1.21 µM	0.672	3.89 µM	0.857	17.7 µM	0.981	> 0.128 µM	0.931	> 10 µM
EGI-1 (biliary tract, adherent)	0.924	> 5.12 µM	0.935	> 20 µM	0.982	> 20 µM	0.982	> 0.128 µM	0.971	> 10 µM
FADU (head and neck, adherent)	0.861	4.07 µM	0.927	> 20 µM	0.98	> 20 µM	0.988	> 0.128 µM	0.879	9.58 µM
FU-OV-1 (ovary, adherent)	0.626	0.794 µM	0.895	> 20 µM	0.804	13.9 µM	0.974	> 0.128 µM	0.934	> 10 µM
GMS-10 (glioma, adherent)	0.841	3.5 µM	0.987	> 20 µM	0.974	> 20 µM	0.987	> 0.128 µM	0.964	> 10 µM
HCE-4 (oesophagus, adherent)	0.804	2.14 µM	0.992	> 20 µM	0.989	> 20 µM	0.992	> 0.128 µM	0.986	> 10 µM
HCT-116 (large intestine, adherent)	0.63	0.716 µM	0.88	19 µM	0.897	> 20 µM	0.979	> 0.128 µM	0.94	> 10 µM
HEL (acute myeloid leukaemia, semi-adherent)	0.786	1.82 µM	0.898	17.5 µM	0.559	1.76 µM	0.992	> 0.128 µM	0.992	> 10 µM
HPAC (pancreas, adherent)	0.819	4.61 µM	0.912	> 20 µM	0.9	> 20 µM	0.979	> 0.128 µM	0.906	> 10 µM
HT55 (large intestine, adherent)	0.986	> 5.12 µM	0.967	> 20 µM	0.986	> 20 µM	0.99	> 0.128 µM	0.99	> 10 µM
HT-29 (large intestine, adherent)	0.786	2.21 µM	0.842	14.1 µM	0.891	> 20 µM	0.986	> 0.128 µM	0.985	> 10 µM
